Reference: PubChem BioAssay AID1159583 (ICCB-Longwood Screening Facility, Harvard Medical School, 2016)
The other results are listed elsewhere or left out. These are further read-outs of the screen, such as a control signal, another cell line or another target. No call is given for them. The list favours compounds with an active or inconclusive main result.

Assay: hypoxia reporter signal reduction in M. tuberculosis – fluorescence, absorbance growth readout, primary screen (AID 1159583)
Settings: M. tuberculosis hypoxia-regulated fluorescent reporter, measured here: M. tuberculosis growth (absorbance), stronger effect = higher value, concentration not given here

| SMILES | growth inhibition |
| --- | --- |
| O=C(/C=C(\c1ccc(Cl)cc1)n1cncn1)c1ccc(Cl)cc1 | 13.1% |
| O=C1CCCN1CCCN=c1c([N+](=O)[O-])nn(-c2ccc(Cl)cc2)n1O | 20.8% |
| O=C(NCc1ccncc1)c1cccc(S(=O)(=O)N2CCc3ccccc32)c1 | 56% |
| O=C(CSc1nnc(-c2ccc(F)cc2)o1)N1CCCCC1 | 30.1% |
| Oc1ccccc1N=Cc1sc2ccccc2c1Cl | 24.3% |
| CN(C)c1ccc2nc3ccc(=[N+](C)C)cc-3sc2c1 | 2.3% |
| Fc1ccc(CSc2nnc(-c3ccccn3)o2)cc1 | 21.9% |
| CCOC(=O)C1=C(COC(=O)c2ccc(OC)c(S(=O)(=O)N3CCOCC3)c2)NC(=O)NC1C (centres undefined) | 53.2% |
| Cc1ccc(NC(=O)Nc2ccno2)cc1 | 6.39% |
| COc1ccc(NC(=O)C(C)N=C2NS(=O)(=O)c3ccccc32)cc1S(N)(=O)=O (centres undefined) | 67.3% |
| CCOc1cc(C=NNc2cc(C)nc(-n3nc(C)cc3C)n2)ccc1O | 16.8% |
| CSc1nc(-c2ccc(C)cc2)nc(C(Cl)Cl)n1 | 41.5% |
| CCCCN(C(=O)c1ccco1)c1c(N)n(CCC)c(=O)[nH]c1=O | 72% |
| CCOc1ccc2oc(C(=O)OCC(=O)NCc3ccc(OC)cc3)c(C)c2c1 | 68.7% |
| CC=CC=CC(=O)Nc1cccc(C2=NOC3(C2)CC(C(N)=O)N(C(=O)c2cc([N+](=O)[O-])cc([N+](=O)[O-])c2)C3)c1 (centres undefined) | 29% |
| CCOc1ncccc1C(=O)Nc1cc2c(cc1Br)OCCO2 | 63.1% |
| CCCCn1c(N)c(N(CCOC)C(=O)c2oc3ccc(Br)cc3c2C)c(=O)[nH]c1=O | 51.1% |
| CCOc1ccccc1OCCCC(=O)Nc1cccc(S(=O)(=O)N2CCOCC2)c1 | 56% |
| CCN(CC)c1ccc(C(=C2C=CC(=[N+](CC)CC)C=C2)c2ccc(N(CC)CC)cc2)cc1 | -31.9% |
| COc1ccc(-n2nc(C(=O)NCC(=O)NC3CCCC(C)C3C)c3ccccc3c2=O)c(OC)c1 (centres undefined) | -16.5% |
| O=C(Nc1ccno1)Nc1ccc(Cl)cc1Cl | 10.7% |
| COc1cc2ccccc2cc1C(=O)NN=Cc1cccnc1 | 31.2% |
| O=C(Oc1ccc(OC(=O)c2ccncc2)cc1)c1ccncc1 | -13.7% |
| Clc1cccc(Cl)c1Cn1nnc(N2CCCC2)n1 | 21.4% |
| O=C1NC(=O)N(c2ccc3c(c2)OCO3)C(=O)C1=Cc1ccc(N2CCCC2)o1 | 4.72% |

| SMILES | growth inhibition |
| --- | --- |
| O=C(CCl)N(c1ccc(Cl)cc1)c1c[nH]c2ccccc12 | 23.6% |
| O=C(CSc1nc2ccccc2nc1N1CCOCC1)N1CCN(c2ccccc2)CC1 | 51.6% |
| O=[N+]([O-])c1cc(-c2ccc(C=Nn3cnnc3)o2)cc([N+](=O)[O-])c1 | 28.1% |
| CC(C)CCOC(=O)C[N+](C)(C)CCOC1CC2CCC1(C)C2(C)C (centres undefined) | 24.1% |
| O=C(Nc1ccc(S(=O)(=O)NC2=NCCCCC2)cc1)c1cccs1 | 54.1% |
| Cc1ccc(NC(=O)c2ccc(Nc3c([N+](=O)[O-])cc([N+](=O)[O-])cc3[N+](=O)[O-])cc2)cc1 | 18.3% |
| CCSc1nnc(NC(=O)[C@H](C)N2C(=O)C3CC=CCC3C2=O)s1 (some centres undefined) | 50.1% |
| Cn1c(-c2ccccc2)cc2c3no[n+]([O-])c3ccc21 | 26.3% |
| COc1ccc(CCNC(=O)c2cc(-c3ccccn3)nc3ccccc23)cc1 | 55.1% |
| CN1CCS/C1=C/C=C1\SC(=S)N(CC(=O)O)C1=O | 4.61% |
| COc1ccc(OCC(=O)NC(=S)Nc2ccc(N3CCOCC3)c(Cl)c2)cc1 | 63.9% |
| COc1cc(N=Nc2ccccc2C(=O)O)ccc1O | 14.1% |
| O=C(NCC1CCCO1)c1sc(=S)n2c1[nH]c(=O)c1ccc(C(=O)N3CCCCC3)cc12 (centres undefined) | 20% |
| CC(NC(=O)COC(=O)c1ccc(N2CCCC2=O)cc1)c1ccc(F)cc1 (centres undefined) | 76.2% |
| CNC(=S)Nc1ccc(-c2nc3ccc(C)cc3s2)cc1 | 60.4% |
| COCCNS(=O)(=O)c1ccc(-c2ccc(C)cc2)cc1 | 49.4% |
| O=[N+]([O-])c1ccccc1S(=O)(=O)Nc1ccc(S(=O)(=O)Nc2nccs2)cc1 | 41.1% |
| CCC(C)N=Cc1c(Nc2ccccc2)nc2c(C)cccn2c1=O (centres undefined) | 24.4% |
| CC1CCN(c2nc3ccccn3c(=O)c2C=O)CC1 | 21.7% |
| O=[N+]([O-])c1ccc(NN=Cc2cc(Br)ccc2O)nc1 | 5.66% |
| CSc1ncccc1C(=O)OCC(=O)c1ccc[nH]1 | 54.1% |
| CC(C)Cn1c(=O)c(C(=O)Nc2ccncc2)c(O)c2ccccc21 | -2.62% |
| CCOc1ccc2oc(C(=O)OCC(=O)NC3CCCCC3)c(C)c2c1 | 72% |
| NS(=O)(=O)c1ccc(NC(=O)c2ccc(Cl)c(S(=O)(=O)NCc3ccco3)c2)cc1 | 61.6% |
| N#Cc1ccc(/C=C/C(=O)c2ccccc2)cc1 | 21.6% |

| SMILES | growth inhibition |
| --- | --- |
| CCCCCCc1nnc(NC(=O)OCC)s1 | 19.8% |
| O=C(OCC(=O)c1ccc(Cl)cc1Cl)c1ccccn1 | 63.1% |
| C/C(=C1/SC(N2CCCC2)=NC1=O)c1ccc(Br)cc1 | 47.9% |
| CCCc1nnc(NC(=O)c2c(O)c3cccc4c3n(c2=O)CC4)s1 | 30.4% |
| Cc1cccc(N(Cc2ccccc2)C(=O)CCl)c1 | 23% |
| CC1CCCN(C(=O)CSc2nnc(-c3cccs3)o2)C1 (centres undefined) | 25.1% |
| CCCS(=O)(=O)N1CCN(Cc2ccc3c(c2)c2ccccc2n3CC)CC1 | -2.89% |
| CCC(/C=C1\Sc2ccc(OC)cc2N1CC)=C\c1sc2ccc(OC)cc2[n+]1CCCS(=O)(=O)[O-] | -49% |
| CCN(CC)CCCNc1nc2ccccc2c2nc(-c3ccncc3)nn12 | 20.1% |
| CCCOc1ccccc1OCC(=O)N1CCN(S(=O)(=O)c2ccc(Cl)cc2)CC1 | 70.6% |
| Cc1ccc(C(=O)OCC(=O)Nc2ccccc2)cc1S(=O)(=O)N1CCCCC1 | 77.1% |
| O=C(COC(=O)c1cc(Cl)nc(Cl)c1)NCCc1ccc(F)cc1 | 52.7% |
| COc1ccc(CN(C)C(=O)COC(=O)c2cc([N+](=O)[O-])ccc2N2CCCC2)c(OC)c1OC | 56% |
| Cc1nnc(NCc2ccccc2)c2ccccc12 | 21.9% |
| O=C(COC(=O)Cc1cccs1)NCC(=O)Nc1ccc(F)cc1 | 73.4% |
| NC(=O)NN=Cc1cn(CC(=O)Nc2ccc(F)cc2)c2ccccc12 | 36.8% |
| Cc1ccc(OCCCC(=O)Nc2ccc(S(=O)(=O)N3CCOCC3)cc2)cc1 | 55.5% |
| Nc1cc(Cl)c2nonc2c1[N+](=O)[O-] | 23.9% |
| Cc1cc(C)n2nc(N)c(N=Nc3ccccc3)c2n1 | 46.8% |
| CCCCn1c(=O)[nH]c(=O)c2c1nc(-c1ccc(-c3ccc(F)cc3)o1)n2C | 8.76% |
| CC(C)(C)c1ccc(OCc2cnc(Cl)s2)cc1 | 25.6% |
| CN(CC(=O)Nc1ccc(OC(F)(F)F)cc1)C(=O)/C=C/c1cc2c(cc1[N+](=O)[O-])OCO2 | 62.6% |
| COc1ccc(C(=O)C(C)OC(=O)CNC(=O)c2ccco2)cc1 (centres undefined) | 64.5% |
| COc1cc(-c2cc(C(=O)Nc3ccncc3)c3ccccc3n2)cc(OC)c1OC | 52.7% |
| O=C(Nc1cccc(Cl)c1)NC1CC2CCC1C2 (centres undefined) | 50% |

| SMILES | growth inhibition |
| --- | --- |
| O=Cc1c(N2CCSCC2)nc2ccccn2c1=O | 16.4% |
| Cc1ccsc1/C=C1/SC(N2CCOCC2)=NC1=O | 18.4% |
| CC(C)CN=c1cc(-c2ccccc2)oc2ccc(Cl)cc12 | -15.4% |
| CCCCN(C(=O)CSc1nnc(-c2ccccc2)o1)c1c(N)n(CCC)c(=O)[nH]c1=O | 67.3% |
| Cc1ccc(C(=O)COC(=O)c2cccc(NC(=O)c3ccc([N+](=O)[O-])cc3[N+](=O)[O-])c2)cc1 | 22.6% |
| COc1cc(/C=C2\SC(N)=NC2=O)ccc1OCC(=O)Nc1ccc(C)cc1 | 30.8% |
| CCc1ccc(OCC(=O)NNCC(=O)Nc2ccc(OC)cc2)cc1 | 35.4% |
| CN(C)CCSc1nc2cc(S(=O)(=O)N3CCCCC3)ccc2o1 | 74.8% |
| CCN(CC)C(=O)CSc1nnc2nnc3cc(OC)ccc3n12 | 38.3% |
| O=C(CSc1nnc(-c2ccco2)o1)NCCc1ccccc1 | 14.1% |
| Nc1ccc(S(=O)(=O)Nc2nc3ccccc3o2)cc1 | 46.7% |
| CS(=O)(=O)c1ccc(C(O)C(CO)NC(=O)C(Cl)Cl)cc1 (centres undefined) | 44.2% |
| COc1ccc(-c2sc3ccccc3c2-c2ccc(OCCN(C)C)cc2)cc1 | 30.1% |
| COc1ccc(CCNC(=O)c2ccc(Cl)cc2)cc1 | 58.3% |
| CN(CC(=O)Nc1ccc(OC(F)(F)F)cc1)C(=O)c1ccc(N2CCCC2=O)cc1 | 53.7% |
| COc1ccc(CN(C)C(=O)c2cccc(S(=O)(=O)N3CCCc4ccccc43)c2)c(OC)c1OC | 66.8% |
| CN1CCC/C1=C/C=C1\SC(=S)NC1=O | -2.6% |
| CN(C(=O)CSc1ncnc2sc3c(c12)CCC3)C1CCS(=O)(=O)C1 (centres undefined) | 72% |
| CN1/C(=C\C=C2/SC(=S)N(CC(=O)O)C2=O)C(C)(C)c2ccccc21 | -1.45% |
| Cc1ccc(C2(C)NC(=O)N(CC(=O)N3c4ccccc4NC(=O)CC3C)C2=O)cc1 (centres undefined) | 53.2% |
| CC(C)(C)c1csc(NN=Cc2ccc(O)cc2)n1 | 59.2% |
| COc1ccc(NC(C)C(=O)NN=Cc2ccc([N+](=O)[O-])s2)cc1 (centres undefined) | 11.3% |
| O=C1CN(C(=O)COC(=O)c2c(F)cccc2Cl)c2ccccc2N1 | 70.1% |
| Cc1cc(N=Nc2ccccc2C(=O)O)c(C)c(C)c1O | 9.87% |
| CCOC(=O)c1c(NC(=O)CN2C(=O)N(C)C3(CCCCC3)C2=O)sc(C(=O)N(C)C)c1C | 59.8% |

| SMILES | growth inhibition |
| --- | --- |
| C=CCOc1ccc(/C=C2\C(=N)N3N=C(S(=O)(=O)CC)SC3=NC2=O)cc1OC | 29% |
| O=C(OCC#CCSc1nnc(-c2cccc3ccccc23)o1)c1cc2ccccc2o1 | 29.6% |
| CN(C)S(=O)(=O)c1ccc(C(=O)OCC(=O)NC(=O)NC2CCCC2)cc1 | 62.6% |
| Cc1cc(NN=Cc2ccccc2O)c2ccccc2n1 | 38.3% |
| Cc1ccc(Cn2ccc(=O)c(OCc3c(Cl)cccc3Cl)c2C)cc1 | 34.8% |
| O=[N+]([O-])c1nn(-c2cccc(Cl)c2)n(O)c1=NCc1cccnc1 | 21.3% |
| N#Cc1c2ccccc2nc2ccccc12 | 39.6% |
| Cc1ccccc1OCCC(=O)NNC(=O)c1ccccc1F | 69.6% |
| Cc1cc(O)c(C(C)C)cc1N=Nc1ccccc1C(=O)O | 6.86% |
| CCN(CC)c1ccc(/C=C2\C(=O)NC(=S)N(C)C2=O)o1 | 13% |
| CC(=O)c1cccc(NC(=O)NC2CCCCCCC2)c1 | 52.5% |
| O=C(COC(=O)C1COc2ccccc2O1)Nc1cccc(F)c1 (centres undefined) | 61.2% |
| CN(C)CCCN1C(=O)c2cccc3c(Br)ccc(c23)C1=O | 5.04% |
| Cc1nnc(SCC(=O)NNC(=O)COc2ccc(Br)cc2)n1C | 65.4% |
| Cc1c(N2C(=O)/C(=C/c3ccc(N(C)C)cc3)N(C)C2=S)c(=O)n(-c2ccccc2)n1C | 7.05% |
| CCC(=Nc1ccccc1O)C1=C(O)CC(c2ccccc2)CC1=O (centres undefined) | 46% |
| CC1CCC2C(C)C(=O)OC3OC4(C)CCC1C32OO4 (centres undefined) | 5.61% |
| O=C(COC(=O)C1CC2CCCC(C1)C2=O)Nc1ccc(F)c(Cl)c1 (centres undefined) | 51.8% |
| COc1cc(/C=C2\SC(N)=NC2=O)ccc1OCC(=O)Nc1ccccc1C | 30.6% |
| [O-][n+]1c2ccccc2c2n1CCN1CCOC21c1ccc(Cl)cc1 (centres undefined) | 38.7% |
| Cc1nc(SCc2ccccc2F)c2oc3ccccc3c2n1 | 14.9% |
| O=C(OCC(=O)c1ccc(Cl)s1)c1cncc(Br)c1 | 59.3% |
| COc1ccc(CCNC(=O)c2cc3c(=O)n4ccccc4nc3n(Cc3ccco3)c2=N)cc1OC | 16% |
| C=CCNc1nc(C(=O)OCC(=O)NCc2cccc(Cl)c2)cs1 | 76.7% |
